From PMC4466884
Results are given in words; binding and its absence hold for the method and conditions named. For some of these results: In cells and extracts the contact can be indirect. Some binding calls cover weakened binding; strength is not graded here. Sequences can lack the tags named with a protein. Each block holds one binder with its values, some of them ahead of it.

Protein sequences, listed by entry. Tags and fused reporters are not part of them. Residues count along the entry.
UniProt P02340, residues 72-390: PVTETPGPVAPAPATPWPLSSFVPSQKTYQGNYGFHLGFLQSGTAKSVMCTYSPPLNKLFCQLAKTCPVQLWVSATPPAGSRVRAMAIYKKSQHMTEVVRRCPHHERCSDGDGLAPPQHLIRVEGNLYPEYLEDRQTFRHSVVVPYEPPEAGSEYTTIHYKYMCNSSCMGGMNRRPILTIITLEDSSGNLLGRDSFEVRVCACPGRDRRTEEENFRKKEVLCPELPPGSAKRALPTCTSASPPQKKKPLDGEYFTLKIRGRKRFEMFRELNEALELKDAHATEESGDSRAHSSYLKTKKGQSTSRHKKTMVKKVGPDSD

How the values were obtained:
[1] = target: T1, Swm2p (synthetic with Mud2), yeast two-hybrid fusion (S. cerevisiae) (UniProt P40342); assay: two-hybrid; GAL4-BD baits (pGBKT7) and GAL4-AD preys (pGADT7) co-transformed into reporter strain PJ69-4A; 10-fold serial dilutions spotted on SDC-Trp-Leu and SDC-Trp-Leu-His (HIS3 reporter), 30 °C
T1 sequence: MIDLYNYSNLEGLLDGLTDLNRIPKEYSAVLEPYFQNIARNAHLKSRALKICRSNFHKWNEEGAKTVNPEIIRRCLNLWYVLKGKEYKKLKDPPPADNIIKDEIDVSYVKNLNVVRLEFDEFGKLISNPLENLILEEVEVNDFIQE

[2] = target: T2, yeast Tgs1p, full-length (aa1-315), yeast two-hybrid fusion (S. cerevisiae) (UniProt Q12052); assay: as above
T2 sequence: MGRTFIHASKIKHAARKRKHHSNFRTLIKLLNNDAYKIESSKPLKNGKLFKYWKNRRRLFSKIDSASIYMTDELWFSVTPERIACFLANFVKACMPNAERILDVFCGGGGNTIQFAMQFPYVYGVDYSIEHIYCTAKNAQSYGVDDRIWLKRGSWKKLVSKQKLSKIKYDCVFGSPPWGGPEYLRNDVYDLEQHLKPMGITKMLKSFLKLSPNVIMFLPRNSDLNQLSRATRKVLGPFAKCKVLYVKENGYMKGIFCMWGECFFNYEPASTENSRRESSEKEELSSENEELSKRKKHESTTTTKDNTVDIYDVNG

[3] = target: yeast Tgs1p lacking the first 10 amino acids (Tgs1Δaa1-10), yeast two-hybrid fusion (S. cerevisiae) (UniProt Q12052); assay: as above
[4] = target: yeast Tgs1p lacking the first 40 amino acids (Tgs1Δaa1-40), yeast two-hybrid fusion (S. cerevisiae) (UniProt Q12052); assay: as above
[5] = target: murine p53 aa 72-390, GAL4-BD fusion (pVA3-1) (murine) (UniProt P02340); assay: as above
[6] = target: yeast Tgs1p co-expressed in E. coli (6His-GST-yTgs1 and 6His-yTgs1p) (S. cerevisiae) (UniProt Q12052); assay: pull-down; GST-Tgs1p or GST (pRSFDuet-1) co-expressed with Tgs1p (pETDuet-1) in E. coli BL21 (DE3); cleared lysate in 150 mM NaCl, 50 mM Tris-HCl pH 7.4 on Glutathione Sepharose; Coomassie gel, proteins determined by mass spectrometry

binding [1]: no binding
B1: Swm2p (synthetic with Mud2), yeast two-hybrid fusion (protein, UniProt P40342 1-146)
chain: T1 sequence

binding [2]: no binding
B2: yeast Tgs1p MTase domain (aa50-262), GAL4-AD fusion (domain or fragment, UniProt Q12052 50-262)
chain: FKYWKNRRRLFSKIDSASIYMTDELWFSVTPERIACFLANFVKACMPNAERILDVFCGGGGNTIQFAMQFPYVYGVDYSIEHIYCTAKNAQSYGVDDRIWLKRGSWKKLVSKQKLSKIKYDCVFGSPPWGGPEYLRNDVYDLEQHLKPMGITKMLKSFLKLSPNVIMFLPRNSDLNQLSRATRKVLGPFAKCKVLYVKENGYMKGIFCMWGEC

binding [2]: no binding
B3: yeast Tgs1p fragment aa263-315, GAL4-AD fusion (domain or fragment, UniProt Q12052 263-315)
chain: FFNYEPASTENSRRESSEKEELSSENEELSKRKKHESTTTTKDNTVDIYDVNG

binding [2]: binds
B4: yeast Tgs1p fragment aa1-100, GAL4-AD fusion (domain or fragment, UniProt Q12052 1-100)
chain: MGRTFIHASKIKHAARKRKHHSNFRTLIKLLNNDAYKIESSKPLKNGKLFKYWKNRRRLFSKIDSASIYMTDELWFSVTPERIACFLANFVKACMPNAER

binding [1]: binds
binding [3]: no binding
binding [2]: binds weakly
B5: yeast Tgs1p lacking the first 10 amino acids (Tgs1Δaa1-10), yeast two-hybrid fusion (domain or fragment, UniProt Q12052 11-315)
chain: IKHAARKRKHHSNFRTLIKLLNNDAYKIESSKPLKNGKLFKYWKNRRRLFSKIDSASIYMTDELWFSVTPERIACFLANFVKACMPNAERILDVFCGGGGNTIQFAMQFPYVYGVDYSIEHIYCTAKNAQSYGVDDRIWLKRGSWKKLVSKQKLSKIKYDCVFGSPPWGGPEYLRNDVYDLEQHLKPMGITKMLKSFLKLSPNVIMFLPRNSDLNQLSRATRKVLGPFAKCKVLYVKENGYMKGIFCMWGECFFNYEPASTENSRRESSEKEELSSENEELSKRKKHESTTTTKDNTVDIYDVNG

binding [2]: no binding
B6: yeast Tgs1p C-terminus fragment aa200-315, GAL4-AD fusion (domain or fragment, UniProt Q12052 200-315)
chain: ITKMLKSFLKLSPNVIMFLPRNSDLNQLSRATRKVLGPFAKCKVLYVKENGYMKGIFCMWGECFFNYEPASTENSRRESSEKEELSSENEELSKRKKHESTTTTKDNTVDIYDVNG

binding [1]: binds
binding [4]: no binding
B7: yeast Tgs1p lacking the first 40 amino acids (Tgs1Δaa1-40), yeast two-hybrid fusion (domain or fragment, UniProt Q12052 41-315)
chain: SKPLKNGKLFKYWKNRRRLFSKIDSASIYMTDELWFSVTPERIACFLANFVKACMPNAERILDVFCGGGGNTIQFAMQFPYVYGVDYSIEHIYCTAKNAQSYGVDDRIWLKRGSWKKLVSKQKLSKIKYDCVFGSPPWGGPEYLRNDVYDLEQHLKPMGITKMLKSFLKLSPNVIMFLPRNSDLNQLSRATRKVLGPFAKCKVLYVKENGYMKGIFCMWGECFFNYEPASTENSRRESSEKEELSSENEELSKRKKHESTTTTKDNTVDIYDVNG

binding [1]: binds
binding [5]: no binding
binding [2]: binds
B8: yeast Tgs1p, full-length (aa1-315), yeast two-hybrid fusion (protein, UniProt Q12052 1-315)
chain: T2 sequence

binding [6]: binds
B9: yeast Tgs1p co-expressed in E. coli (6His-GST-yTgs1 and 6His-yTgs1p) (protein, UniProt Q12052 1-315)
chain: T2 sequence

binding [2]: no binding
Binder: MGRTFIHASKIKHAARKRKHHSNFRTLIKLLNNDAYKIESSKPLKNGKL (domain or fragment, UniProt Q12052 1-49) [yeast Tgs1p fragment aa1-49, GAL4-AD fusion]

binding [1]: no binding
B10: human Tgs1p truncation aa631-853, yeast two-hybrid fusion (domain or fragment, UniProt Q96RS0 631-853)
chain: VNGLPPEIAAVPELAKYWAQRYRLFSRFDDGIKLDREGWFSVTPEKIAEHIAGRVSQSFKCDVVVDAFCGVGGNTIQFALTGMRVIAIDIDPVKIALARNNAEVYGIADKIEFICGDFLLLASFLKADVVFLSPPWGGPDYATAETFDIRTMMSPDGFEIFRLSKKITNNIVYFLPRNADIDQVASLAGPGGQVEIEQNFLNNKLKTITAYFGDLIRRPASET
